Experiment in all cases: Primary Screen for Target Class Profiling of Small Molecule Inhibitors of Methyltransferases
The target in assay [1] is Glycine N-methyltransferase (Homo sapiens) (UniProt Q14749). The conditions noted are these: purified enzyme, MTase-Glo SAH luminescence; measured here: GNMT inhibition; at 40 µM; stronger effect = lower value. The method in brief:
(§1)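 Each enzyme was reacted with SAM and its substrate, with compounds tested once at 40 uM; SAH formed was read by MTase-Glo luminescence.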

The target of assay [2] is Guanidinoacetate N-methyltransferase (Homo sapiens) (UniProt Q14353). As to conditions: purified enzyme, MTase-Glo SAH luminescence; measured here: GAMT inhibition; at 40 µM; stronger effect = lower value. The method in brief: as §1
The target in assay [3] is Histamine N-methyltransferase (Homo sapiens) (UniProt P50135). The conditions noted are these: purified enzyme, MTase-Glo SAH luminescence; measured here: HNMT inhibition; at 40 µM; stronger effect = lower value. A digest of the protocol: as §1
Assay [4] has as its target Nicotinamide N-methyltransferase (Homo sapiens) (UniProt P40261). As to conditions: purified enzyme, MTase-Glo SAH luminescence; measured here: NNMT inhibition; at 40 µM; stronger effect = lower value. A digest of the protocol:
as §1

Assay [5] deals with Phenylethanolamine N-methyltransferase (Homo sapiens) (UniProt P11086). The conditions noted are these: purified enzyme, MTase-Glo SAH luminescence; measured here: PNMT inhibition; at 40 µM; stronger effect = lower value. A digest of the protocol:
as §1

“And” between values parts separate entries of the source, which are not always exact repeats. Equal values may be shown once. The list shows a part of the results. Further columns of the screen follow, without active or inactive calls.
% is set by controls: 0 for no effect and ±100 for the full control effect.

Take `CN(CCCN1C(=O)c2ccc(-c3ccco3)n2CC1(C)C(=O)NC1CCCCC1)C1CCCCC1` (stereo not given): the activity change, negative = inhibition in assay [1] was 2.18%; in assay [2] it was 0%; in assay [3], 2.92%; in assay [4] it was 5.6%; in assay [5], -0.065%.
The matching figures for `CCOc1ccc(CN2C(=O)c3ccc(-c4ccco4)n3CC2(C)C(=O)NC2CCCC2)cc1` (stereo not given): -7.65%, 4.53%, -1.6%, 0.588% and -3.37%.
Turning to `CCCN1C(=O)c2cc(C(=O)N3CCN(Cc4ccccc4)CC3)nn2CC1(C)C(=O)NC1CCCC1` (stereo not given), the activity change, negative = inhibition was 2.36% in assay [1]; 3.07% in assay [2]; 10.3% in assay [3]; 6.51% in assay [4]; 3.69% in assay [5].
Consider `CC(=O)O[C@H]1[C@H](O[C@H]2[C@@H]3C=CO[C@@H](O[C@@H]4O[C@H](CO)[C@@H](O)[C@H](O)[C@H]4O)[C@@H]3[C@@]3(CO)O[C@@H]23)O[C@@H](C)[C@H](OC(=O)/C=C/c2ccccc2)[C@H]1OC(=O)/C=C/c1ccccc1`, for which the activity change, negative = inhibition in assay [1] was 3%; in assay [2] it was 13.2%; in assay [3] it was -0.652%; in assay [4], -0.874%; in assay [5], 4.63%.
As to `COc1ccccc1N1CCN(CCCNc2cc(=O)n(C)c(=O)n2C)CC1`, the activity change, negative = inhibition in assay [1] was 5.64% and -1.75%; in assay [2] it was 6.81% and 3.34%; in assay [3], 9.28% and 0.271%; in assay [4] it was -11.5% and -11.8%; in assay [5], 6.37% and 4.69%.
Take `CCN1C(=O)CCc2cc(NC(=O)c3ccc(F)cc3)ccc21`: the activity change, negative = inhibition was -9.43% in assay [1]; -14.7% in assay [2]; -10.5% in assay [3]; -17.9% in assay [4]; -35.4% in assay [5].
The matching figures for `Cn1c(CO)c(-c2ccccc2)c2cc([N+](=O)[O-])ccc21`: -8.84%, -3.38%, -15.9%, -31.5% and -8.85%.
The matching figures for `O=C(CCc1nnc2n(CCc3ccccc3)c(=O)c3ccccc3n12)N1CCN(c2ccc(F)cc2)CC1`: -3.72%, 1.05%, 5.84%, -26% and 0.589%.
The matching figures for `CN(C)[C@H]1CCN(C(=O)Cc2cn(C)c3ccccc23)C[C@H]1CCC(=O)O`: -0.218%, 0.187%, 2.6%, -3.29% and -4.42%.
On to `COC(=O)c1ncn2c1C(=O)N(Cc1cccc(OC)c1)C(C)(C(=O)NCc1ccccc1)C2` (stereo not given), for which the activity change, negative = inhibition is -5.47% in assay [1]; 3.35% in assay [2]; 1.55% in assay [3]; -1.79% in assay [4]; -2.75% in assay [5].
The matching figures for `CCN(CC)CCN1C(=O)c2ccc(-c3ccco3)n2CC1(C)C(=O)NC1CCC(C)CC1` (stereo not given): 5.38%, 0.592%, 3.58%, 3.96% and 0.754%.
Take `COc1ccc(CNC(=O)Cn2nc3n(CC(C)C)c(=O)c4ccccc4n3c2=O)cc1`: the activity change, negative = inhibition is -4.8% in assay [1]; 5.33% in assay [2]; -0.857% in assay [3]; -13% in assay [4]; -9.08% in assay [5].
The matching figures for `CC1(C(=O)NC2CCCC2)Cn2c(cc3ccccc32)C(=O)N1Cc1ccccc1F` (stereo not given): -3.92%, 1.45%, -2.59%, -17.7% and -2.49%.
The matching figures for `C=C(CCC1=C(C)[C@H]2[C@H](CC3[C@@H]4CC=C5C[C@@H](O)C[C@@H](O)[C@]5(C)C4[C@H](O)C[C@@]32C)O1)CO[C@@H]1O[C@H](CO)[C@@H](O)[C@H](O)[C@H]1O` (stereo not given in full): 2.67%, 7.59%, 11.3%, -4.29% and 8.62%.
The matching figures for `CCc1ccc(CNC(=O)Cn2ccc3cc(S(=O)(=O)N4CCCCC4)ccc32)cc1`: -2.02%, 3.83%, 0.255%, -0.594% and -1.1%.
Regarding `CC(C)CNC(=O)c1ccc2c(=O)n(C(C)C)c3nn(Cc4c(F)cccc4Cl)c(=O)n3c2c1`, the activity change, negative = inhibition is 7.19% in assay [1]; 0% in assay [2]; 8.55% in assay [3]; 7.8% in assay [4]; 5.13% in assay [5].
The matching figures for `CC(=O)Nc1cccc(-c2csc(Nc3cc(C)ccn3)n2)c1`: -6.57%, 2.69%, -4.24%, -17.4% and -8.71%.
The matching figures for `C1Cc2[nH]nc(-c3nn[nH]n3)c2C1`: 5.86%, 2.01%, 11.2%, -12.6% and 2.06%.
The matching figures for `CC1CCCCC1NC(=O)C1(C)Cn2c(cc3sccc32)C(=O)N1Cc1ccc(F)cc1` (stereo not given): 3.98%, -17.1%, 5.71%, -6.74% and -0.728%.
On to `CC(C)CNC(=O)c1ccc2c(=O)n(CC(C)C)c3n[nH]c(=O)n3c2c1`, for which the activity change, negative = inhibition is -7.82% in assay [1]; 0% in assay [2]; 6.26% in assay [3]; 1.56% in assay [4]; -6.81% in assay [5].
Consider `Cc1ccc(CNC(=O)c2cc3n(n2)CC(C)(C(=O)NCc2ccc(C)cc2)N(C)C3=O)cc1` (stereo not given), for which the activity change, negative = inhibition in assay [1] amounted to 8.76%; in assay [2], 0%; in assay [3] it was 7.46%; in assay [4] it was 13.6%; in assay [5] it was 7.53%.
The matching figures for `COc1ccc(C(=O)N2CCN(c3nnc4ccccn34)CC2)cc1OC`: -6.67%, 1.24%, 0.256%, -2.86% and -0.199%.
The matching figures for `CCOC(=O)c1cc2n(n1)CC(C)(C(=O)NCc1ccccc1)N(c1ccc3c(c1)OCO3)C2=O` (stereo not given): -5.19%, 1.21%, -3.42%, -7.99% and -7.41%.
The matching figures for `Cc1nccn1CCC(NC(=O)c1cn(CCN)nn1)c1ccccc1` (stereo not given): -7.25%, -9.12%, -31.3%, -8.05% and -11%.
`Oc1cc2c(c(Cl)c1O)CCNCC2c1ccccc1` (stereo not given): the activity change, negative = inhibition was -40.6% in assay [1]; 4.37% in assay [2]; -45.3% in assay [3]; -10.6% in assay [4]; -1.28% in assay [5].
The matching figures for `CCc1ccc(N2C(=O)c3cc4sccc4n3CC2(C)C(=O)NC2CCC(C)CC2)cc1` (stereo not given): 3.83%, 1.81%, 5.52%, 3.25% and -6.17%.
The matching figures for `Cc1cc(C)nc(SCC(=O)Nc2ncc(Cc3cccc4ccccc34)s2)n1`: 1.38%, -4.85%, 10.6%, -26.6% and -2.63%.
The matching figures for `COC(=O)c1cc(COc2ccc3c(-c4ccccc4)cc(=O)oc3c2)c(C)o1`: -2.84%, 1.61%, 2.46%, -1.39% and -5.9%.
Consider `CC(=O)c1ccc(NC(=O)N[C@H]2CCN3C(=O)[C@@H](Cc4ccccc4)NC(=O)[C@H]23)cc1`, for which the activity change, negative = inhibition in assay [1] was -8.12%; in assay [2], -10.3%; in assay [3], -7.34%; in assay [4], -18.9%; in assay [5] it was -5.55%.
Regarding `c1ccc(Cc2ncc3c(n2)CCNCC3)cc1`, the activity change, negative = inhibition is 0.988% in assay [1]; -0.181% in assay [2]; -0.16% in assay [3]; -12.9% in assay [4]; -0.983% in assay [5].

Source of the values: PubChem BioAssay AID1745853 (National Center for Advancing Translational Sciences (NCATS), 2022).
